# The other results are listed elsewhere or left out.
# Columns and labels:
# Test in all cases: glycan array binding signal (z-score within array); higher = stronger binding
# Conditions in all cases: glycan notation: IUPAC condensed, linker removed
# [1] = biological target: Fuc(a1-3)[Gal(b1-4)]Glc6S
# Method in brief: (§1)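 From the Consortium for Functional Glycomics database, 3228 arrays were curated, keeping only those whose protein sequence was available. Binding is given as a within-array Z-score averaged across arrays sharing a protein sequence and across linkers. Negative Z-scores can be read as non-binding.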
# [2] = biological target: Fuc(a1-3)[Gal(b1-4)]GlcNAc
# Method in brief: as §1
# [3] = biological target: Fuc(a1-3)[Gal(b1-4)]GlcNAc(b1-2)Man
# Method in brief: as §1
# [4] = biological target: Fuc(a1-3)[Gal(b1-4)]GlcNAc(b1-2)Man(a1-3)[Fuc(a1-3)[Gal(b1-4)]GlcNAc(b1-2)Man(a1-6)]Man(b1-4)GlcNAc(b1-4)GlcNAc
# Method in brief: as §1
# [5] = biological target: Fuc(a1-3)[Gal(b1-4)]GlcNAc(b1-2)Man(a1-3)[Fuc(a1-3)[Gal(b1-4)]GlcNAc(b1-2)Man(a1-6)]Man(b1-4)GlcNAc(b1-4)[Fuc(a1-6)]GlcNAc
# Method in brief: as §1
# [6] = biological target: Fuc(a1-3)[Gal(b1-4)]GlcNAc(b1-3)Gal(b1-3)[Fuc(a1-4)]GlcNAc
# Method in brief: as §1
# [7] = biological target: Fuc(a1-3)[Gal(b1-4)]GlcNAc(b1-3)Gal(b1-4)[Fuc(a1-3)]GlcNAc
# Method in brief: as §1
# [8] = biological target: Fuc(a1-3)[Gal(b1-4)]GlcNAc(b1-3)Gal(b1-4)[Fuc(a1-3)]GlcNAc(b1-3)Gal(b1-4)[Fuc(a1-3)]GlcNAc
# Method in brief: as §1
# [9] = biological target: Fuc(a1-3)[Gal(b1-4)]GlcNAc(b1-3)GalNAc
# Method in brief: as §1
# [10] = biological target: Fuc(a1-3)[Gal(b1-4)]GlcNAc(b1-4)Gal(b1-4)[Fuc(a1-3)]GlcNAc
# Method in brief: as §1
# [11] = biological target: Fuc(a1-3)[Gal(b1-4)]GlcNAc(b1-4)Gal(b1-4)[Fuc(a1-3)]GlcNAc(b1-4)Gal(b1-4)[Fuc(a1-3)]GlcNAc
# Method in brief: as §1
# [12] = biological target: Fuc(a1-3)[Gal(b1-4)]GlcNAc(b1-6)GalNAc
# Method in brief: as §1
# [13] = biological target: Fuc(a1-3)[Gal(b1-4)]GlcNAc(b1-6)[Gal(b1-3)GlcNAc(b1-3)]Gal(b1-4)Glc
# Method in brief: as §1
# [14] = biological target: Fuc(a1-3)[Gal(b1-4)]GlcNAc6S
# Method in brief: as §1
# [15] = biological target: Fuc(a1-3)[Gal3S(b1-4)]Glc
# Method in brief: as §1
# [16] = biological target: Fuc(a1-3)[Gal3S(b1-4)]Glc6S
# Method in brief: as §1
# [17] = biological target: Fuc(a1-3)[Gal3S(b1-4)]GlcNAc
# Method in brief: as §1
# [18] = biological target: Fuc(a1-3)[Gal3S(b1-4)]GlcNAc6S
# Method in brief: as §1
# [19] = biological target: Fuc(a1-3)[GalNAc(b1-4)]Gal(b1-4)GlcNAc
# Method in brief: as §1
# [20] = biological target: Fuc(a1-3)[GalNAc(b1-4)]GlcNAc
# Method in brief: as §1
# [21] = biological target: Fuc(a1-3)[GalNAc(b1-4)]GlcNAc6S
# Method in brief: as §1
# Fuc(a1-4)GlcNAc = biological target: Fuc(a1-4)GlcNAc
# Method in brief: as §1
# Fuc(b1-3)GlcNAc = biological target: Fuc(b1-3)GlcNAc
# Method in brief: as §1
# Gal(a1-2)Gal = biological target: Gal(a1-2)Gal
# Method in brief: as §1
# Gal(a1-3)Gal = biological target: Gal(a1-3)Gal
# Method in brief: as §1
# Gal(a1-3)Gal(b1-3)Glc = biological target: Gal(a1-3)Gal(b1-3)Glc
# Method in brief: as §1
# Gal(a1-3)Gal(b1-3)GlcNAc = biological target: Gal(a1-3)Gal(b1-3)GlcNAc
# Method in brief: as §1
# [22] = biological target: Gal(a1-3)Gal(b1-3)GlcNAc(b1-2)Man
# Method in brief: as §1
# [23] = biological target: Gal(a1-3)Gal(b1-3)GlcNAc(b1-2)Man(a1-3)[Gal(a1-3)Gal(b1-3)GlcNAc(b1-2)Man(a1-6)]Man(b1-4)GlcNAc(b1-4)GlcNAc
# Method in brief: as §1
# [24] = biological target: Gal(a1-3)Gal(b1-3)GlcNAc(b1-3)GalNAc
# Method in brief: as §1
# [25] = biological target: Gal(a1-3)Gal(b1-3)GlcNAc(b1-6)GalNAc
# Method in brief: as §1
# [26] = biological target: Gal(a1-3)Gal(b1-3)[Fuc(a1-4)]GlcNAc(b1-2)Man(a1-3)[Gal(a1-3)Gal(b1-3)[Fuc(a1-4)]GlcNAc(b1-2)Man(a1-6)]Man(b1-4)GlcNAc(b1-4)GlcNAc
# Method in brief: as §1
# Gal(a1-3)Gal(b1-4)Glc = biological target: Gal(a1-3)Gal(b1-4)Glc
# Method in brief: as §1
# Gal(a1-3)Gal(b1-4)GlcNAc = biological target: Gal(a1-3)Gal(b1-4)GlcNAc
# Method in brief: as §1
# [27] = biological target: Gal(a1-3)Gal(b1-4)GlcNAc(b1-2)Man
# Method in brief: as §1
# [28] = biological target: Gal(a1-3)Gal(b1-4)GlcNAc(b1-2)Man(a1-3)[Gal(a1-3)Gal(b1-4)GlcNAc(b1-2)Man(a1-6)]Man(b1-4)GlcNAc(b1-4)GlcNAc
# Method in brief: as §1
# [29] = biological target: Gal(a1-3)Gal(b1-4)GlcNAc(b1-3)GalNAc
# Method in brief: as §1
# [30] = biological target: Gal(a1-3)Gal(b1-4)GlcNAc(b1-6)GalNAc
# Method in brief: as §1
binder,measurement,setting,value
"UEA-I (Ulex europaeus), P22972 (protein) SDDLSFKFKNFSQNGKDLSFQGDASVIETGVLQLNKVGNNLPDETGGIARYIAPIHIWNCNTGEVASFITSFSFFMETSANPKAATDGLTFFLAPPDSPLRRAGGYFGLFEDTKDNDSSYQTVAVEFDTIGSPVNFDDPGFPHIGIDVNRVKSINAERWNKRYGLNNVANVEIIYEASSKTLTASLTYPSDQTSISVTSIVDLKEILPEWVSVGFSGGTYIGRQATHEVLNWYFTSNLINTNS",glycan array binding signal (z-score),[1],-0.109
same,glycan array binding signal (z-score),[2],-0.142
same,glycan array binding signal (z-score),[3],-0.206
same,glycan array binding signal (z-score),[4],-0.178
same,glycan array binding signal (z-score),[5],-0.026
same,glycan array binding signal (z-score),[6],-0.111
same,glycan array binding signal (z-score),[7],-0.193
same,glycan array binding signal (z-score),[8],-0.194
same,glycan array binding signal (z-score),[9],-0.097
same,glycan array binding signal (z-score),[10],-0.197
same,glycan array binding signal (z-score),[11],-0.196
same,glycan array binding signal (z-score),[12],0.149
same,glycan array binding signal (z-score),[13],-0.103
same,glycan array binding signal (z-score),[14],-0.083
same,glycan array binding signal (z-score),[15],-0.137
same,glycan array binding signal (z-score),[16],0.641
same,glycan array binding signal (z-score),[17],-0.141
same,glycan array binding signal (z-score),[18],-0.108
same,glycan array binding signal (z-score),[19],-0.554
same,glycan array binding signal (z-score),[20],-0.159
same,glycan array binding signal (z-score),[21],-0.217
same,glycan array binding signal (z-score),Fuc(a1-4)GlcNAc,0.791
same,glycan array binding signal (z-score),Fuc(b1-3)GlcNAc,-0.212
same,glycan array binding signal (z-score),Gal(a1-2)Gal,-0.226
same,glycan array binding signal (z-score),Gal(a1-3)Gal,-0.198
same,glycan array binding signal (z-score),Gal(a1-3)Gal(b1-3)Glc,-0.406
same,glycan array binding signal (z-score),Gal(a1-3)Gal(b1-3)GlcNAc,-0.211
same,glycan array binding signal (z-score),[22],-0.29
same,glycan array binding signal (z-score),[23],-0.037
same,glycan array binding signal (z-score),[24],-0.241
same,glycan array binding signal (z-score),[25],-0.2
same,glycan array binding signal (z-score),[26],-0.008
same,glycan array binding signal (z-score),Gal(a1-3)Gal(b1-4)Glc,-0.131
same,glycan array binding signal (z-score),Gal(a1-3)Gal(b1-4)GlcNAc,-0.182
same,glycan array binding signal (z-score),[27],-0.155
same,glycan array binding signal (z-score),[28],-0.163
same,glycan array binding signal (z-score),[29],-0.179
same,glycan array binding signal (z-score),[30],-0.264

# Source: the supplement of paper PMC8728848
